One may read the IC50 as the concentration at which inhibition is half-maximal. As a reminder, the IC90 is the concentration at which the effect reaches the 90% level.

This is an account of results in US20250163048A1 (Tango Therapeutics, Inc., priority 2022, published 2025).

Like-named read-outs stand apart in the source and are kept apart here.

The subject of assay [1] is MTAP-deleted cell line. The assay can be described thus: viability assay for the MTAP-deleted cell line. Type of assay: cell-based. Particulars: Homo sapiens, HAP1, viability assay.
In assay [2] the test system is HAP1 MTAP-intact cell line. The assay can be described thus: SDMA in-cell western assay, HAP1 MTAP-intact. Particulars: Homo sapiens.
The subject of assay [3] is HAP1 MTAP-deleted cell line. Kind of assay: SDMA in-cell western assay, HAP1 MTAP-deleted. The settings on record: for IC50 / IC90: Homo sapiens; for Hap1 MTAP intact/deleted ratio: IC50 ratio between HAP1 MTAP-intact and HAP1 MTAP-deleted cell line.
Setting [4] is: HAP1, read-out: Hap1 MTAP intact IC50, SDMA in-cell western, HAP1 MTAP-intact cell line.
[5] abbreviates: HAP1, read-out: Hap1 MTAP deleted IC50, SDMA in-cell western, HAP1 MTAP-deleted cell line.
The mark [6] stands for this setting: HAP1, read-out: Hap1 MTAP deleted IC90, SDMA in-cell western, HAP1 MTAP-deleted cell line.
Setting [7] is: HAP1, read-out: Hap1 MTAP intact IC50, SDMA in-cell western assay, HAP1 MTAP-intact cell line.
Setting [8] is: HAP1, read-out: Hap1 MTAP deleted IC50, SDMA in-cell western assay, HAP1 MTAP-deleted cell line.
Setting [9] is: HAP1, read-out: Hap1 MTAP deleted IC90, SDMA in-cell western assay, HAP1 MTAP-deleted cell line.

As for `C[C@H]1CC[C@H](c2ccc3sc([C@@H]4CN5CC[C@@H]4C5)nc3c2)N(C(=O)C(=O)Nc2cncc3cn[nH]c23)C1` (relative stereo) [Compound 134, 2-((2R,5S)-2-(2-(1-azabicyclo[2.2.1]heptan-3-yl)benzo[d]thiazol-5-yl)-5-methylpiperidin-1-yl)-2-oxo-N-(1H-pyrazolo[4,3-c]pyridin-7-yl)acetamide], the IC50 was under 100 nM in assay [1], 5 to 50 nM in assay [2] (setting [4]) and under 5 nM in assay [3] (setting [5]). For the same molecule, the IC90 in assay [3] (setting [6]) was under 75 nM. Moreover, the “Hap1 MTAP intact/deleted ratio” value in assay [3] (SDMA in-cell western) is on record as “C (“C” indicates an IC50 ratio of less than 15 fold)”.

For the molecule `CN(C)c1cccc([C@H]2CCCCN2C(=O)C(=O)Nc2cnc(N)c3cn[nH]c23)c1` [Compound 129], the 50% inhibitory concentration (IC50) in assay [1] is under 100 nM; in assay [2] (setting [4]) it was over 50 nM; in assay [3] (setting [5]) it was under 5 nM. In addition, the IC90 in assay [3] (setting [6]) is under 75 nM. Further, the “Hap1 MTAP intact/deleted ratio” value in assay [3] (SDMA in-cell western) is on record as “B (“B” indicates an IC50 ratio greater than or equal to 15 fold but lower than 30 fold)”.

For the molecule `C[C@@H]1CC[C@@H](c2ccn(CCN(C)C)n2)N(C(=O)C(=O)Nc2cnc(N)c3cn[nH]c23)C1` (racemic) [Compound 224, N-(4-Amino-1H-pyrazolo[4,3-c]pyridin-7-yl)-2-oxo-2-[rac-(2R,5S)-2-[1-[2-(dimethylamino)ethyl]pyrazol-3-yl]-5-methyl-1-piperidyl]acetamide], the IC50 in assay [1] was under 100 nM; in assay [2] (setting [7]) it was over 50 nM; in assay [3] (setting [8]), 5 to 50 nM. Moreover, the IC90 in assay [3] (setting [9]) was over 125 nM. Besides, in assay [3] (SDMA in-cell western assay), the “Hap1 MTAP intact/deleted ratio” value is recorded as “C (“C” indicates an IC50 ratio of less than 15 fold)”.

Take `C[C@H]1CC[C@H](c2ccc3cn(C4CCN(C)CC4)nc3c2)N(C(=O)C(=O)Nc2ccn3ccnc3c2)C1` [Compound 88, N-imidazo[1,2-a]pyridin-7-yl-2-oxo-2-[(2R,5S)-5-methyl-2-[2-(1-methyl-4-piperidyl)indazol-6-yl]-1-piperidyl]acetamide]: the IC50 in assay [1] was under 100 nM; in assay [2] (setting [4]), 5 to 50 nM; in assay [3] (setting [5]), under 5 nM. Moreover, the IC90 in assay [3] (setting [6]) is under 75 nM. In assay [3] (SDMA in-cell western), the “Hap1 MTAP intact/deleted ratio” value was “B (“B” indicates an IC50 ratio greater than or equal to 15 fold but lower than 30 fold)”.

Regarding `C[C@H]1CC[C@H](c2ccc3sc(CCCN(C)C)nc3c2)N(C(=O)C(=O)Nc2cncc3cn[nH]c23)C1` [Compound 72, 2-((2R,5S)-2-(2-(3-(dimethylamino)propyl)benzo[d]thiazol-5-yl)-5-methylpiperidin-1-yl)-2-oxo-N-(1H-pyrazolo[4,3-c]pyridin-7-yl)acetamide], the IC50 is under 100 nM in assay [1], over 50 nM in assay [2] (setting [4]) and under 5 nM in assay [3] (setting [5]). The concentration for an effect of 90% (IC90) in assay [3] (setting [6]) was under 75 nM. Besides, the “Hap1 MTAP intact/deleted ratio” value in assay [3] (SDMA in-cell western) is reported as “A (“A” indicates an IC50 ratio greater than or equal to 30 fold)”.

Consider `CCN(CC)c1cccc(C2CCCCN2C(=O)C(=O)Nc2cnc(N)c3cn[nH]c23)c1` (single isomer, unassigned) [Compound 236], for which the IC50 in assay [1] was under 100 nM; in assay [2] (setting [7]), over 50 nM; in assay [3] (setting [8]), under 5 nM. Further, the 90% effect concentration (IC90) in assay [3] (setting [9]) was under 75 nM. In addition, the “Hap1 MTAP intact/deleted ratio” value in assay [3] (SDMA in-cell western assay) is “A (“A” indicates an IC50 ratio greater than or equal to 30 fold)”.

As to `COc1cc([C@H]2CC[C@H](C)CN2C(=O)C(=O)Nc2cnc(N)c3cn[nH]c23)cnc1C` (racemic) [Compound 225, N-(4-Amino-1H-pyrazolo[4,3-c]pyridin-7-yl)-2-oxo-2-[rac-(2R,5S)-2-(5-methoxy-6-methyl-3-pyridyl)-5-methyl-1-piperidyl]acetamide], the concentration for half-maximal inhibition (IC50) was under 100 nM in assay [1], over 50 nM in assay [2] (setting [7]) and under 5 nM in assay [3] (setting [8]). Further, the IC90 in assay [3] (setting [9]) was under 75 nM. Besides, the “Hap1 MTAP intact/deleted ratio” value in assay [3] (SDMA in-cell western assay) is “B (“B” indicates an IC50 ratio greater than or equal to 15 fold but lower than 30 fold)”.
